Values quoted from earlier work in patent US20250073222A1, “METHODS FOR THE TREATMENT AND PREVENTION OF NON-VIRAL TICK-BORNE DISEASES AND SYMPTOMS THEREOF” (60 DEGREES PHARMACEUTICALS LLC, priority 2023, published 2025).

System: P. falciparum gametocytes
Conditions: in vivo, 1.66 mg/kg; cited from earlier work

## COc1cc(C)c2c(Oc3cccc(C(F)(F)F)c3)c(OC)cc(NC(C)CCCN)c2n1 (stereo not shown) [tafenoquine, N(4)-[2,6-Dimethoxy-4-methyl-5-[3-(trifluoromethyl)phenoxy]quinolin-8-yl]pentane-1,4-diamine]
  time until gametocytes were non-infectious to mosquitoes: within seven days
